Results reported in the antibiotic and cytotoxicity screens of Wong et al. (2023).
The list shows a part of the results.

How the values were obtained:
HSkMC = human skeletal muscle cells; assay: cytotoxicity call (relative viability < 0.9); conditions: 10 µM
HepG2 = assay: cytotoxicity call (relative viability < 0.9); conditions: 10 µM
S. aureus RN4220 = assay: growth inhibition call (relative growth <= 0.2); conditions: 50 µM

C[C@H](O)C#Cc1cnc2c(c1)C(=O)N([C@H](C)CO)C[C@H](C)[C@@H](CN(C)C(=O)CN1CCOCC1)O2
inactive: cytotoxicity call (HSkMC) | cytotoxicity call (HepG2) | growth inhibition call (S. aureus RN4220)

C[C@@H]1CN([C@H](C)CO)C(=O)CCCn2cc(nn2)CO[C@H]1CN(C)C(=O)C1CC1
inactive: cytotoxicity call (HSkMC) | cytotoxicity call (HepG2) | growth inhibition call (S. aureus RN4220)

C[C@H]1CN([C@@H](C)CO)C(=O)c2cc(NC(=O)CCCCCC(=O)Nc3ccccc3N)ccc2O[C@@H]1CN(C)C(=O)Nc1cccc2ccccc12
inactive: cytotoxicity call (HSkMC) | cytotoxicity call (HepG2) | growth inhibition call (S. aureus RN4220)

C[C@H]1CN([C@@H](C)CO)C(=O)c2cc(Br)cnc2O[C@H]1CN(C)S(=O)(=O)c1ccc(F)cc1
inactive: cytotoxicity call (HSkMC) | cytotoxicity call (HepG2) | growth inhibition call (S. aureus RN4220)

COCCNC(=O)C[C@@H]1CC[C@@H](NS(=O)(=O)c2ccc(C)cc2)[C@H](CO)O1
inactive: cytotoxicity call (HSkMC) | cytotoxicity call (HepG2) | growth inhibition call (S. aureus RN4220)

CCCC[C@@H](C#N)c1ccc(F)cn1
inactive: cytotoxicity call (HSkMC) | cytotoxicity call (HepG2) | growth inhibition call (S. aureus RN4220)

CC(C)(C)c1cc(C(=O)NN)no1
inactive: cytotoxicity call (HSkMC) | cytotoxicity call (HepG2) | growth inhibition call (S. aureus RN4220)

Cc1ccc(S(=O)(=O)N(C)C[C@@H]2Oc3c(NC(=O)NC(C)C)cccc3C(=O)N([C@@H](C)CO)C[C@@H]2C)cc1
inactive: cytotoxicity call (HSkMC) | cytotoxicity call (HepG2) | growth inhibition call (S. aureus RN4220)

CC(C)NC(=O)Nc1ccc2c(c1)C(=O)N([C@@H](C)CO)C[C@H](C)[C@@H](CN(C)Cc1ccc(Cl)c(Cl)c1)OCCCC[C@H](C)O2
inactive: cytotoxicity call (HSkMC) | cytotoxicity call (HepG2) | growth inhibition call (S. aureus RN4220)

CCNC(=O)C[C@H]1C=C[C@@H](NC(=O)C2CCOCC2)[C@H](CO)O1
inactive: cytotoxicity call (HSkMC) | cytotoxicity call (HepG2) | growth inhibition call (S. aureus RN4220)

NCCSC12CC3CC(CC(C3)C1)C2
inactive: cytotoxicity call (HSkMC) | cytotoxicity call (HepG2) | growth inhibition call (S. aureus RN4220)
